Experimental data reported in patent publication US20230295068A1, “NOVEL CYCLOALKENONE COMPOUND OR SALT THEREOF” (TAIHO PHARMACEUTICAL CO., LTD., priority 2020, published 2023).
At least one read-out could not be matched to a standard name with certainty.

Tested on: ND3 neuronal cell line
Test: Measurement of nerve growth stimulation effect (neurite bearing assay, neurite length assay, number of cells)
Type: cell-based
Conditions: 6 hours, relative activity, maximum activity of compound 24 = 1
Procedure: To evaluate the nerve growth stimulation effect, neurite bearing assay (proportion of neurite-bearing cells) and neurite length assay (neurite length) were analyzed with reference to the method of Topalli et al. (Brain Research 1030 (2004), pp. 116-124).
An ND3 neuronal cell line (European Collection of Authenticated Cell Cultures) was seeded in a DMEM medium containing 10% fetal bovine serum (0.6×10^4 cells/1 mL) in a 24-well plate. 24 hours later, the medium of seeded cells was removed, and a solution in which the compound of the present disclosure that was sequentially diluted in dimethyl sulfoxide (DMSO) was adjusted in DIEM containing 0.1% bovine serum albumin so that the DMSO final concentration was 0.1%, was added to cells (evaluation performed in duplicate). After six hours from the addition, the proportion of neurite-bearing cells (the number of cells having a neurite longer than the diameter of the cell body/number of total cells), and the neurite length per cell were analyzed. The number of total cells, proportion of neurite-bearing cells, and neurite length per cell were analyzed using a MetaMorph Neurite Outgrowth Application Module (Molecular Devices Japan K.K.). The number of cells was defined as the relative cell number, taking the number of cells per well containing DMSO as 1. The relative activity of each compound when the maximum activity of 3-(15-methoxypentadecyl)-2,4,4-trimethylcyclohexa-2-en-1-one (compound 24) in each test was defined as 1 is shown (Table 9). For the compounds for which multiple tests were conducted, the average value was shown. Data with a number of cells of 0.5 or more was also used. Accordingly, if the number of cells was less than 0.5, the neurite length per cell and the proportion of neurite-bearing cells were defined as “-”.

SMILES	Neurite length per cell (1 μM)	Proportion of neurite-bearing cells (1 μM)	Neurite length per cell (3 μM)	Proportion of neurite-bearing cells (3 μM)	Neurite length per cell (5 μM)	Proportion of neurite-bearing cells (5 μM)	Neurite length per cell (10 μM)	Proportion of neurite-bearing cells (10 μM)	Neurite length per cell (30 μM)	Proportion of neurite-bearing cells (30 μM)	Neurite length per cell (100 μM)	Proportion of neurite-bearing cells (100 μM)
CC1=C(CCCCCCCCCCCCO)C(C)(C)CCC1=O [Compound 1, 3-(12-hydroxydodecyl)-2,4,4-trimethylcyclohex-2-en-1-one, reference compound]	0.19	0.11	0.18	0.11	0.21	0.13	0.30	0.23	0.67	0.62	–	–
CC1=C(CCCCCCCCCCCCCO)C(C)(C)CCC1=O [Compound 2, 3-(13-hydroxytridecyl)-2,4,4-trimethylcyclohex-2-en-1-one, reference compound]	0.18	0.10	0.18	0.11	0.22	0.16	0.39	0.33	–	–	–	–
CC1=C(CCCCCCCCCCCCCCO)C(C)(C)CCC1=O [Compound 3, 3-(14-hydroxytetradecyl)-2,4,4-trimethylcyclohex-2-en-1-one, reference compound]	0.22	0.11	0.24	0.16	0.33	0.24	0.54	0.46	–	–	–	–
CC1=C(CCCCCCCCCCCCCCCO)C(C)(C)CCC1=O [Compound 4, 3-(15-hydroxypentadecyl)-2,4,4-trimethylcyclohex-2-en-1-one, reference compound]	0.26	0.24	0.33	0.34	0.39	0.41	0.71	0.70	–	–	–	–
CC1=C(CCCCCCCCCCCCCCCCO)C(C)(C)CCC1=O [Compound 5, 3-(16-hydroxyhexadecyl)-2,4,4-trimethylcyclohex-2-en-1-one, reference compound]	0.22	0.12	0.36	0.27	0.56	0.48	0.92	1.09	–	–	–	–
CC1=C(CCCCCCCCCCCCCCCOC2CCCCO2)C(C)(C)CCC1=O (centres unmarked) [Compound 6, 2,4,4-trimethyl-3-(15-((tetrahydro-2H-pyran-2-yl)oxy)pentadecyl)cyclohex-2-en-1-one, reference compound]	0.21	0.19	0.20	0.18	0.22	0.22	0.25	0.25	0.22	0.19	0.22	0.18
CC1=C(CCCCCCCCCCCCCCCO)CCCC1=O [Compound 7, 3-(15-hydroxypentadecyl)-2-methylcyclohex-2-en-1-one, reference compound]	0.18	0.15	0.22	0.20	0.27	0.25	0.30	0.28	–	–	–	–
CC1(C)CCC(=O)C=C1CCCCCCCCCCCCCCCO [Compound 8, 3-(15-hydroxypentadecyl)-4,4-dimethylcyclohex-2-en-1-one, reference compound]	0.19	0.15	0.22	0.18	0.27	0.23	0.25	0.21	–	–	–	–
CC1=C(CCCCCCCCCCCCCOC(C)C)C(C)(C)CCC1=O [Compound 18, 3-(13-isopropoxytridecyl)-2,4,4-trimethylcyclohex-2-en-1-one]	0.28	0.22	0.32	0.28	0.39	0.33	0.70	0.67	1.88	2.17	1.68	1.87
CCCCOCCCCCCCCCCCCCC1=C(C)C(=O)CCC1(C)C [Compound 20, 3-(13-butoxytridecyl)-2,4,4-trimethylcyclohex-2-en-1-one]	0.30	0.28	0.36	0.37	0.45	0.49	0.47	0.53	0.58	0.55	0.96	0.90
CCOCCCCCCCCCCCCCCCC1=C(C)C(=O)CCC1(C)C [Compound 25, 3-(15-ethoxypentadecyl)-2,4,4-trimethylcyclohex-2-en-1-one]	0.24	0.22	0.33	0.31	0.35	0.33	0.40	0.38	0.48	0.45	0.88	0.87
[2H]C([2H])([2H])OCCCCCCCCCCCCCCCC1=C(C)C(=O)CCC1(C)C [Compound 27, 3-(15-(methoxy-d3)pentadecyl)-2,4,4-trimethylcyclohex-2-en-1-one]	–	–	0.19	0.13	0.25	0.18	0.29	0.21	0.29	0.22	0.42	0.34
[2H]C([2H])(CCCCCCCCCCCCCCC1=C(C)C(=O)CCC1(C)C)OC [Compound 28, 3-(15-methoxypentadecyl-15,15-d2)-2,4,4-trimethylcyclohex-2-en-1-one]	0.20	0.17	0.21	0.18	0.26	0.27	0.30	0.30	0.32	0.30	0.45	0.40
